Data reported in PubChem BioAssay AID588342 (National Center for Advancing Translational Sciences (NCATS), 2011).
Hit rate of the full screen: of about 360,000 compounds, about 25,000 (6.9%) were called active. The shares of active, inactive and inconclusive entries below differ from those in the screen. Calls come from the whole dose curve; as a rule, active = well fitted inhibition curve with a large enough effect; inconclusive = small, poorly fitted or top-dose-only effect; inactive = flat fitted curve, though single readings scatter. Potencies beside an inconclusive call are fits to weak or partial responses and may not hold up.
Note: nearly all actives have a fitted effect of over 55% in size.
Potency is the fitted concentration of half-maximal effect; tags give direction and shape of the fitted curve.
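Throughout, for activity change, negative = inhibition: plate controls were vehicle for no effect and reference inhibitor for full effect.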

These compounds were tested against Luciferin 4-monooxygenase (Photinus pyralis) (UniProt P08659) (assay: qHTS profiling assay for firefly luciferase inhibitor/activator using purifed enzyme and Km concentrations of substrates (counterscreen for miR-21 project)). Conditions: purified FLuc, luminescence inhibition; activity change, negative = inhibition: at 57.5 µM (top of the series).
Chain of UniProt P08659 (P08659 whole entry, looked up): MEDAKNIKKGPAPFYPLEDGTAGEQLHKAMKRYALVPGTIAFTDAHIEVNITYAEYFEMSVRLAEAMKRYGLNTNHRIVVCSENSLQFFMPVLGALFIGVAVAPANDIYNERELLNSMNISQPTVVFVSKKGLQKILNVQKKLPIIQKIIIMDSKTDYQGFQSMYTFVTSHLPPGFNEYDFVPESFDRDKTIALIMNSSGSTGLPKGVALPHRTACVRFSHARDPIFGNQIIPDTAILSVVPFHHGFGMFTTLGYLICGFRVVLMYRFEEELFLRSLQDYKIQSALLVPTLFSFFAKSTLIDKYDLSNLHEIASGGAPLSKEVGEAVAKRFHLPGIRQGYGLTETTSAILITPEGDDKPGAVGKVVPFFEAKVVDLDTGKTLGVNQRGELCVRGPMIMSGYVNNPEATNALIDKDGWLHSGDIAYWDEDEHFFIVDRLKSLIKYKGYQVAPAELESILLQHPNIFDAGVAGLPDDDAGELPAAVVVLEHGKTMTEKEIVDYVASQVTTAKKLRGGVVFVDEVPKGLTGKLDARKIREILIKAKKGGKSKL
Method in brief: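 Biochemical qHTS of compounds, final roughly 60 µM downward over six points, against 10 nM purified firefly luciferase using Km concentrations of substrates (10 uM D-luciferin, 10 uM ATP) in Tris acetate pH 7.5 buffer; luminescence output.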
`O=C(Cc1csc2ccccc12)NCc1ccc(F)cc1` was tested, and the Potency was inconclusive: 26.9 µM [inhibitor, partial curve, poor fit]. `O=C1/C(=C/c2cccs2)SC(=S)N1CCC(=O)N1CCCCC1CCO` (stereo not given) was tested, and the Potency was inconclusive: 23.9 µM [inhibitor, single point]. `COc1ccc(Nc2cc(C(=O)NCc3cccnc3)c3ccccc3n2)c(OC)c1` was tested, and the Potency was active: 10.7 µM. With `CC(=O)Nc1ccc(NC(=O)CSc2ccc(-c3sc(C)nc3C)nn2)cc1` the Potency was inconclusive: 30.1 µM [inhibitor, partial curve, poor fit]. For `Cc1ccc2nc(-c3ccccc3)cc(C(=O)N3CC(C)OC(C)C3)c2c1` (stereo not given), the Potency was inconclusive: 21.3 µM [inhibitor, partial curve, poor fit]. `CC(C)CNC(=O)c1cc(-c2ccc(Br)cc2)on1` was tested, and the Potency was inconclusive: 2.13 µM [inhibitor, full curve]. `Cc1nc(N2CCCC2)c2c(C(=O)N3CCN(c4cc(Cl)ccc4C)CC3)c(C)oc2n1` was tested, and the “activity change, negative = inhibition” value was inactive: -9.91%. In the case of `COc1cccc(/C(N)=N/OC(=O)Cc2ccccc2[N+](=O)[O-])c1`, the Potency is reported as inconclusive: 37.9 µM [inhibitor, single point]. `Cc1cccc(OCCCC(=O)Nc2nccs2)c1C` was tested, and the “activity change, negative = inhibition” value was inactive: -0.711%. `COc1ccc(Nc2nnc(SCC(=O)NC(=O)Nc3ccc4c(c3)OCCO4)s2)cc1` was tested, and the Potency was inconclusive: 26.9 µM [inhibitor, partial curve, poor fit]. In the case of `CCOc1ccccc1C(=O)N[C@H](C(=O)OCc1cc(=O)oc2cc(C)ccc12)C(C)C`, the Potency is reported as inconclusive: 42.6 µM [inhibitor, partial curve, poor fit]. In the case of `CN1CCN(S(=O)(=O)c2cccc(C(=O)Nc3sc4c(c3-c3nc5ccccc5[nH]3)CCCC4)c2)CC1`, the Potency is reported as inconclusive: 21.3 µM [inhibitor, single point]. In the case of `O=C(NC(NC(=S)Nc1ccccc1C(=O)O)C(Cl)(Cl)Cl)c1ccccc1` (stereo not given), the Potency is reported as inconclusive: 23.9 µM [inhibitor, partial curve, poor fit]. For `COc1ccccc1NS(=O)(=O)c1cc(NC(=O)c2ccc3c(c2)OCCO3)ccc1C`, the Potency was inconclusive: 12 µM [inhibitor, partial curve]. `N#CC1(NC(=O)COC(=O)c2ccccc2[N+](=O)[O-])CCCCC1` was tested, and the Potency was inconclusive: 19 µM [inhibitor, partial curve]. For `O=C(NNC(=O)c1ccccc1O)c1ccc(Cl)c(S(=O)(=O)N2CCc3ccccc32)c1`, the Potency was inconclusive: 37.9 µM [inhibitor, single point]. With `CC(=Nc1cc(C(=O)c2ccccc2)ccc1N)C1=C(O)CC(C)(C)CC1=O` the Potency was inconclusive: 37.9 µM [inhibitor, partial curve, poor fit]. With `C=CCSc1n[nH]c(-c2cccs2)n1` the Potency was inconclusive: 26.9 µM [inhibitor, partial curve, poor fit]. With `CCOc1cc(C#N)c(-n2nnc3c(sc4nc(C)cc(C)c43)c2=O)cc1OCC` the “activity change, negative = inhibition” value was inactive: -5.97%. With `CC(C)c1ccc(-c2nnn(CCC#N)n2)cc1` the Potency was inconclusive: 21.3 µM [inhibitor, single point]. `CCCCN(C)C(=O)c1ccc2c(c1)N(Cc1cccc(F)c1)C(=O)c1ccccc1S2` was tested, and the Potency was inconclusive: 21.3 µM [inhibitor, partial curve, poor fit]. For `O=C(Nc1nccs1)c1cc(-c2ccco2)nc2ccccc12`, the Potency was inconclusive: 37.9 µM [inhibitor, partial curve, poor fit]. For `O=C(O)COc1ccc(NC(=O)c2ccc(NC(=O)c3ccco3)cc2)cc1`, the Potency was inconclusive: 23.9 µM [inhibitor, single point]. For `CCOc1ccccc1NCc1cc(=O)oc2cc(C)ccc12`, the Potency was inconclusive: 30.1 µM [inhibitor, partial curve, poor fit]. `Oc1cccc(Nc2nc(NCC3CCCO3)c3ccccc3n2)c1` (stereo not given) was tested, and the Potency was inconclusive: 26.9 µM [inhibitor, single point]. `Cc1nn2cc(-c3ncc(C(F)(F)F)cc3Cl)cnc2c1Br` was tested, and the Potency was active: 1.51 µM. For `O=C(Nc1nc(-c2ccc3c(c2)OCCO3)cs1)C1CCCC1`, the Potency was active: 7.57 µM. With `Cc1cc(=O)n2[nH]c(-c3ccc(Cl)cc3)cc2n1` the Potency was active: 12 µM. With `Nc1ccc(Nc2nc(-c3ccncc3)cs2)cc1` the Potency was active: 4.78 µM. `Nc1ccc(Nc2ccccc2)c(Cl)c1` was tested, and the Potency was inconclusive: 37.9 µM [inhibitor, partial curve, poor fit]. In the case of `CCCN(CC1CCCO1)C(=O)CCc1nnc(-c2cc(C)on2)o1` (stereo not given), the Potency is reported as inconclusive: 23.9 µM [inhibitor, partial curve, poor fit]. For `COc1ccc(NC(=O)c2oc3ccccc3c2NC(=O)C2CCCCC2)c(OC)c1`, the “activity change, negative = inhibition” value was inactive: -9.43%. For `COc1cc(OC)cc(-c2cc3ncccc3cn2)c1`, the Potency was inconclusive: 13.5 µM [inhibitor, single point]. For `O=C(Nc1ccccc1C(=O)Nc1ccc(F)cc1)c1ccco1`, the Potency was inconclusive: 37.9 µM [inhibitor, partial curve, poor fit]. `COc1cc(/C=C2\CCc3ccccc3C2=O)cc(OC)c1OC` was tested, and the Potency was inconclusive: 26.9 µM [inhibitor, partial curve, poor fit]. With `COc1ccccc1-c1nc2s/c(=C\c3cccs3)c(=O)n2n1` the Potency was inconclusive: 23.9 µM [inhibitor, single point]. For `O=C(Nc1nc(-c2ccccc2)cs1)c1cccnc1`, the Potency was inconclusive: 10.7 µM [inhibitor, partial curve, poor fit]. For `CCN(CC)c1ccc(C2Nc3ccccc3-c3cc(C)nn32)cc1` (stereo not given), the Potency was inconclusive: 12 µM [inhibitor, partial curve]. In the case of `COc1ccc(OCC(=O)NNC(=S)NC(=O)C2CC2)cc1`, the Potency is reported as inconclusive: 37.9 µM [inhibitor, single point]. `COc1ccc(/C=C/C(=O)N2CCN(c3ccccn3)CC2)cc1` was tested, and the Potency was inconclusive: 15.1 µM [inhibitor, partial curve, poor fit]. In the case of `O=C(Cc1ccc(F)cc1)Oc1ccc(C(=S)N2CCCC2)cc1`, the Potency is reported as inconclusive: 37.9 µM [inhibitor, partial curve, poor fit]. In the case of `COc1ccc(N2CCC(CNC(=O)Nc3ccc(C)c(C)c3)C2)cc1` (stereo not given), the Potency is reported as inconclusive: 30.1 µM [inhibitor, single point]. For `CCCCn1c(C)cc2c(c1=O)[C@H]1O[C@](CCCC)(Cc3cc(OC)c(OC)cc31)O2`, the activity change, negative = inhibition was inactive: 1.5% [at 11.5 µM]. In the case of `Cc1ccc(CNc2ccc3cc(S(=O)(=O)N4CCCCC4)ccc3n2)cc1`, the “activity change, negative = inhibition” value is reported as inactive: -2.14%. With `Cc1ccc(NC(=O)/C(=C\c2cccs2)NC(=O)c2ccccc2)cc1` the “activity change, negative = inhibition” value was inactive: -9.18%. For `COc1cc(C(F)(F)F)nc2c(Br)c(C(C)(C)C)nn12`, the “activity change, negative = inhibition” value was inactive: -4.91%. For `CCCC(=O)NC1CCCc2c1cnn2-c1ccc(C)c(C)c1` (stereo not given), the Potency was inconclusive: 37.9 µM [inhibitor, partial curve, poor fit]. In the case of `CCOc1ccc(-c2nnc(N(CC)C(=O)C3CCC3)s2)cc1`, the Potency is reported as active: 7.57 µM. In the case of `N#Cc1c(NC(=O)CSc2nnc(-c3ccncc3)n2CC2CCCO2)sc2c1CCCC2` (stereo not given), the Potency is reported as inconclusive: 37.9 µM [inhibitor, partial curve, poor fit]. For `COc1cccc(CSc2nc3ccncc3[nH]2)c1`, the Potency was active: 13.5 µM. In the case of `CC(=O)c1ccc(N2CCN(C(=O)c3cccc(Oc4ccccc4)c3)CC2)cc1`, the Potency is reported as inconclusive: 37.9 µM [inhibitor, partial curve, poor fit]. In the case of `CC(C)(C)c1ccc(C(=O)NCCCNC(=O)c2ccccn2)cc1`, the Potency is reported as active: 16.9 µM. With `Cc1ccc(N(Cc2cccs2)C(=O)c2ccco2)cc1` the “activity change, negative = inhibition” value was inactive: -19.6%. `Nc1nn(-c2ccccc2)nc1C(=O)OCc1c(F)cccc1Cl` was tested, and the Potency was inconclusive: 21.3 µM [inhibitor, partial curve, poor fit]. With `O=C(CN1C(=O)NC2(CCOc3ccccc32)C1=O)Nc1cccc(Cl)c1` (stereo not given) the Potency was inconclusive: 21.3 µM [inhibitor, partial curve, poor fit]. With `Cc1ccc(S(=O)(=O)Nc2ccc(O)c3cccnc23)cc1` the “activity change, negative = inhibition” value was inactive: -0.709%. In the case of `CCN(CC)c1ccc(NC(=O)COC(=O)CSc2ccc(Br)cc2C)cc1`, the “activity change, negative = inhibition” value is reported as inactive: -17.7%. For `CC(C)N(C(=O)Cn1cc(S(=O)(=O)Cc2ccc(Cl)cc2)c2ccccc21)C(C)C`, the “activity change, negative = inhibition” value was inactive: -1.07%. For `Nc1c(C(=O)c2ccccc2)sc2nsc(SCCN3CCOCC3)c12`, the Potency was active: 21.3 µM. `O=C(NC1CC(=O)N(c2cccc(F)c2)C1)C(=O)c1c[nH]c2ccccc12` (stereo not given) was tested, and the “activity change, negative = inhibition” value was inactive: 3.66%. In the case of `CCOC(=O)c1[nH]c2ccccc2c1NC(=O)c1ccccc1F`, the “activity change, negative = inhibition” value is reported as inactive: -6.76%. In the case of `COc1ccc(/C(=N\Nc2ccccc2C(=O)O)c2ccccc2)cc1`, the Potency is reported as active: 9.53 µM. `O=C(N/N=C/c1ccc2c(c1)OCO2)c1ccc(NC(=O)c2ccccc2Cl)cc1` was tested, and the Potency was inconclusive: 21.3 µM [inhibitor, partial curve]. `Cc1ccc(-c2nc(-c3ccccc3)no2)cc1` was tested, and the Potency was active: 0.213 µM. For `O=C1C2C3C=CC(C4CC34)C2C(=O)N1/N=C/c1ccc(-c2ccc(F)cc2[N+](=O)[O-])o1` (stereo not given), the Potency was active: 13.5 µM. With `Cc1ccc(/C=N/n2c(-c3ccncc3)n[nH]c2=S)cc1` the “activity change, negative = inhibition” value was inactive: 4.83%. With `O=C(O)c1ccc(/C=C/c2nc3sc4c(c3c(=O)[nH]2)CCC4)cc1` the Potency was active: 19 µM. In the case of `CCC(C)c1ccccc1NC(=O)c1cc2cccc([N+](=O)[O-])c2[nH]1` (stereo not given), the Potency is reported as inconclusive: 19 µM [inhibitor, partial curve, poor fit]. In the case of `Cc1ncsc1C(=O)Nc1nc2c(s1)CC(C)CC2` (stereo not given), the Potency is reported as active: 2.13 µM. With `Cc1ccccc1NC(=O)c1ccc(F)c(S(=O)(=O)N2CCN(c3ccccc3F)CC2)c1` the “activity change, negative = inhibition” value was inactive: -9.47%.
